B1: Ab-Moka L1: Moka1 replacing the knob domain of BLV1H12 CDR3H with GGGGS linkers (protein)
chain: QVQLRESGPSLVKPSQTLSLTCTASGFSLSDKAVGWVRQAPGKALEWLGSIDTGGNTGYNPGLKSRLSITKDNSKSQVSLSVSSVTTEDSATYYCTSVHQETKKYQSGGGGSTPLGPARSLPQSFLLKCLEQVRKIQADGAELQERLCAAHKLCHPEELMLLRHSLGIPQAPLSSCSSQSLQLTSCLNQLHGGLFLYQGLLQALAGISPELAPTLDTLQLDVTDFATNIWLQMEDLGAAPAVQPTQGAMPTFTSAFQRRAGGVLVASQLHRFLELAYRGLRYLAEPGGGGSSYTYNYEWHVDVWGQGLLVTVSSASTTAPKVYPLSSCCGDKSSSTVTLGCLVSSYMPEPVTVTWNSGALKSGVHTFPAVLQSSGLYSLSSMVTVPGSTSGQTFTCNVAHPASSTKVDKAV[not shown - human IgG1 Fc]
B2: Ab-Moka L0: Moka1 replacing the knob domain of BLV1H12 CDR3H, no linker (protein)
chain: QVQLRESGPSLVKPSQTLSLTCTASGFSLSDKAVGWVRQAPGKALEWLGSIDTGGNTGYNPGLKSRLSITKDNSKSQVSLSVSSVTTEDSATYYCTSVHQETKKYQSTPLGPARSLPQSFLLKCLEQVRKIQADGAELQERLCAAHKLCHPEELMLLRHSLGIPQAPLSSCSSQSLQLTSCLNQLHGGLFLYQGLLQALAGISPELAPTLDTLQLDVTDFATNIWLQMEDLGAAPAVQPTQGAMPTFTSAFQRRAGGVLVASQLHRFLELAYRGLRYLAEPSYTYNYEWHVDVWGQGLLVTVSSASTTAPKVYPLSSCCGDKSSSTVTLGCLVSSYMPEPVTVTWNSGALKSGVHTFPAVLQSSGLYSLSSMVTVPGSTSGQTFTCNVAHPASSTKVDKAV[not shown - human IgG1 Fc]

How the values were obtained:
Human T cells = assay: Inhibition of human T cells activation (secreted TNF-α ELISA); type: cell-based; details: T cells activated by anti-CD3 and CD28 antibodies, 24 h
Procedure: (§1) Human PBMCs were isolated from fresh venous blood of healthy donors through ficoll gradient centrifugation, followed by resuspension in RPMI1640 medium with 10% FBS and plating in 96-well plates at a density of 1×10^6 cells/mL. Human T cells were purified from the isolated PBMCs using T cell enrichment kit. Purified PBMCs and T cells were pretreated for 1 h at 37° C. with 5% CO2 with various concentrations of purified BLV1H12-Moka1 fusion antibodies and then activated by anti-CD3 and CD28 antibodies. After 24 h treatment, supernatant was collected for measurement of the levels of secreted TNF-α using ELISA kit.
Human T cells were purified from the isolated PBMCs using T cell enrichment kit. Purified T cells were pretreated for 1 h at 37° C. with 5% CO2 with various concentrations of purified BLV1H12-VM24 fusion antibodies and then activated by anti-CD3 and CD28 antibodies. After 24 h treatment, supernatant was collected for measurement of the levels of secreted TNF-α using ELISA kit. FIGS. 18B-C and Table 15 show the BLV1H12-VM24 fusion antibodies inhibitory activities on T cells activation.

[1] = tested on: human peripheral blood mononuclear cells (PBMCs); assay: Inhibition of human PBMC activation (secreted TNF-α ELISA); type: cell-based; details: PBMCs activated by anti-CD3 and CD28 antibodies, 24 h
Procedure: as §1

Molecule | F.I. (secreted TNF-α, ELISA) (Human T cells; 0.3658 nM) | F.I. (secreted TNF-α, ELISA) (Human T cells; 1.09739 nM) | F.I. (secreted TNF-α, ELISA) (Human T cells; 3.29218 nM) | F.I. (secreted TNF-α, ELISA) (Human T cells; 9.87654 nM) | F.I. (secreted TNF-α, ELISA) (Human T cells; 29.62963 nM) | F.I. (secreted TNF-α, ELISA) (Human T cells; 88.88889 nM) | F.I. (secreted TNF-α, ELISA) (Human T cells; 266.66667 nM) | F.I. (secreted TNF-α, ELISA) (Human T cells; 800 nM) | F.I. (secreted TNF-α, ELISA) ([1]; 2 nM) | F.I. (secreted TNF-α, ELISA) ([1]; 20 nM) | F.I. (secreted TNF-α, ELISA) ([1]; 200 nM) | F.I. (secreted TNF-α, ELISA) ([1]; 400 nM)
B1 | 479.8675 | 498.558 | 452.342 | 445.013 | 467.268 | 360.2535 | 233.809 | 226.155 | 1394.048 | 1295 | 773.4 | 505.102
B2 |  |  |  |  |  |  |  |  | 1679 | 1441 | 928.1 | 665

From patent publication US10774132B2, “Ultralong complementarity determining regions and uses thereof” (THE SCRIPPS RESEARCH INSTITUTE, priority 2012, dated 2020)
